Measured values published in the supplement of paper PMC10126150.
Values marked as one replicate rest on one cluster of the flow cell; about a third of the high ones do not repeat.

test system: ATP; assay: switch fluorescence ratio, 500 uM ATP over buffer (Cy3 cluster intensity, sum of 5 cycles each) (fold (ratio)); higher = stronger signal-on switching upon ATP binding; sequences stand for … in TCGTCGGCAGCGTCAGATGTGTATAAGAGACAGTTTTTTTTTTTTTTTTTTTTTTTTT…TC; details: aptamer strand: ATP DNA aptamer (quencher-CACCTGGGGGAGTATTGCGGAGGAAGG + anchor), 100 nM annealed; ATP concentration: 500 uM; one replicate
How it was run: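 Exposure to 500 uM ATP lasted 15 min at 22 °C before imaging, and a selection-buffer image was taken beforehand, for Cy3-labelled switching-strand clusters on a modified Illumina MiSeq flow-cell annealed to 100 nM quencher-labelled ATP aptamer. Five buffer/ATP cycles were run with NaOH stripping and re-annealing between them. The fluorescence ratio per cluster is summed target-cycle over summed buffer-cycle Cy3 intensity, averaged per switch-domain sequence. Clusters outside 100-1000 RFU were excluded.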

Sequence	switch fluorescence ratio
GAAGGGAGGG	0.968
GTAAGCGGCT	0.989
TTGGTCGTTG	1.04
GCCCGGTTAC	1.78
TAGTGCTACT	1.02
CCACAAAGAT	1.04
GGGCTGCACA	1
TTGAGTACGA	0.979
CTCAACGTAC	1.8
GGGCGGAGAT	0.996
TTACGATTTA	1.01
CAGCGTCAAC	1.11
GCGCTTAGCT	0.955
CATCGCCGTT	1.02
TTGATTTAT	0.985
CCGGTTTGTT	1.07
ACGGAGTGTT	0.999
AGAGGTATGT	0.993
TATTGTTGGA	0.991
CTTTGTTT	0.963
CGTTATGTCA	0.992
GCTCGTCCGG	1.02
GCCCTGAATC	1.03
CGGCTATGAA	1.04
GGTTTGCCAG	1.01
ACGATTGTAT	0.979

Sequence	switch fluorescence ratio
TTTAGATGT	1.04
ACCAGCAACG	1.07
CCGGGACGTC	0.988
GAGTAGGGCC	1.07
CGATGGGGCG	0.963
TTCTTGGCCC	1.01
GTCTATGGTC	0.973
CGTAATGTG	1.01
GCCTTCCATA	1.37
CAAAGGGGAA	1.05
CGGAGCGGGA	1.11
GGGACACAAT	1.02
CCTGAATTTT	0.984
TGTCGTTATG	0.949
TAGTTGCGGA	0.98
CACCCTATGC	1.1
TGGCCCATCC	1.02
AGGATATTAC	0.995
GGAGATTCCT	0.972
GCAGCCCGTG	0.999
GATCAGGAGT	0.966
GCACGCAAGA	1.65
ATGGTGCATA	1.01
ATTTGCTAAG	0.983
TGTAAGGGCA	1.02
CAGGGCTTCG	1.03

Sequence	switch fluorescence ratio
CATCCTTTGG	1.02
AAGATGGGAC	0.965
CTGAACAGTC	1.04
CTAAGAAATA	1.04
AGCAATACTT	1.39
TACGTTAGGG	1.08
GGGTACAGTA	0.998
TCGAGATGAT	1
GGATGGGTTA	0.995
GGAGTTGTAA	1.04
ATTGTGGCCG	1.01
ATGGCCAAGG	0.989
CCTTTTATGA	1.02
TGCGAAATCG	0.974
GGTGCCTATT	0.945
CAGTAACTGA	1.06
CGAAACTGTT	1.08
AGCTCCTATG	1.03
GTGCGTGGGC	1.02
AAACTGGTCG	0.977
AGACGGTGAC	1.08
GGATTGAGAT	0.956
CAGTGTCCTG	0.953
GATGATGAAC	1.03
CTATTATCCA	0.982
GCTGGAGTAA	1.3

Sequence	switch fluorescence ratio
ATGGCGCGCC	1.01
GTCCTACAA	1.04
TGGGCGCTCG	1
AACTCGCATC	1.78
ATGCGATCGA	1.06
TATTTTCCTT	0.939
GATGTCCTTA	1.02
ACAGTTTGCA	1
TGAACTACAG	1.02
AGGGTCTAC	0.975
AATGCGGGAC	1.16
CTGAGCATCG	1.03
AACTACATGG	1.01
TATTAAGTA	0.943
TTTCTCCATG	1
CATCGTGAAA	1.01
TTGTAAAGGG	0.955
GGTCTTGGT	0.99
ACTGTAAAGG	1.05
CGTTGGTCTC	0.959
CCCACAGGGT	2.07
ACTTCCTTTC	1.35
TATTCGACGT	1.05
GATATTACAC	1.04
ACGCTACGGT	1.47
AACAATGGCT	0.999

Sequence	switch fluorescence ratio
GGTCTGCCGG	1.06
CATCGCTGGG	1.04
CCAGGATCTG	1
AAATGTCACT	1.01
AAATGCGGCA	1.01
AGGCTGGACT	0.96
CAATTCTAGC	1.01
AGGGCAGGGG	1.04
GGGGTTCTGG	0.968
AAGATCTGGG	1
CAAAAGCGCC	1.01
TACCAATGG	1.02
TCGGGCATAA	1.21
ATGAGTGAAA	0.978
ACTCGCTTTA	1.13
AAGGGACATA	1.02
AAAGGTAGCG	0.994
TTGACATTT	1.02
CGACTGGTGT	1.2
GTAACCGGAT	0.985
GGACATAGGA	0.968
AGTTAAGTTT	0.946
GTCAACGCAG	1.02
ACTCATTTCA	1.05
ATGAGACGAT	0.961
CGATGGAGAT	1.02

Sequence	switch fluorescence ratio
GTGAGATACC	0.965
TAATGCGCAT	1.04
GGTTCGATGT	1
CGGGCAAACG	0.981
GAAGTTTCTT	0.997
ATACGCAGGA	0.987
GCAATATCGG	1.57
CCTGTATCTA	1.01
TGTCACTTGG	1
TCCGGTCCCT	1.06
CGATTCTTTC	0.991
GCCTGCTCCG	1.76
ATGGCGGCAG	0.99
AGATGAAATT	0.991
GTGCAACCCT	1.06
TACGCTTCGG	0.979
ACATTGGACT	1.1
GACCTCCCTG	1.02
AACGGTATCG	0.97
CTGCACGTAT	1.07
GGGAAAGACG	0.995
GGTCGCCTTT	0.979
TTATTCTGCA	1.02
